Data published in PubChem BioAssay AID2675 (National Center for Advancing Translational Sciences (NCATS), 2010).
Hit rate of the full screen: of about 280,000 compounds, about 100 (0.036%) were called active. The inconclusive results got no clear call from the source; some entries with a clear call stand among them for comparison. The call rests on the fitted dose curve; in most records, active means well fitted inhibition curve with a large enough effect in the signal ratio, with a control signal flat (not every such curve was filed as active); inconclusive means small, poorly fitted or top-dose-only effect, or effect the other way, or a change in a side signal; inactive means no such curve, though single readings can be large or run the other way; the % refers to the signal ratio. Potencies beside an inconclusive call are fits to weak or partial responses and may not hold up. A note “side channel” means that the fit belongs to a control or component signal, not to the main read-out.

Biological target: Muscleblind-like protein 1 (Homo sapiens) (UniProt Q9NR56)
Test: qHTS Assay for Inhibitors of MBNL1-poly(CUG) RNA binding
Conditions: TR-FRET MBNL1-His/biotin-(CUG)12 binding, 665/545 ratio; activity change, negative = inhibition: at 57.5 µM (top of the series)
Summary of the method: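 Inhibition of protein-RNA binding appears as loss of TR-FRET between terbium anti-His antibody on MBNL1-His and streptavidin-XL665 on biotin-(CUG)12. Activity is normalized to buffer-only and uninhibited-complex controls.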
On the % scale 0 is the no-effect control and ±100 the full control effect; potency means the concentration at half of the fitted maximal effect; tags describe the fitted curve by direction and shape or compound fluorescence and quenching.

UniProt Q9NR56, sequence (Q9NR56 whole entry, looked up): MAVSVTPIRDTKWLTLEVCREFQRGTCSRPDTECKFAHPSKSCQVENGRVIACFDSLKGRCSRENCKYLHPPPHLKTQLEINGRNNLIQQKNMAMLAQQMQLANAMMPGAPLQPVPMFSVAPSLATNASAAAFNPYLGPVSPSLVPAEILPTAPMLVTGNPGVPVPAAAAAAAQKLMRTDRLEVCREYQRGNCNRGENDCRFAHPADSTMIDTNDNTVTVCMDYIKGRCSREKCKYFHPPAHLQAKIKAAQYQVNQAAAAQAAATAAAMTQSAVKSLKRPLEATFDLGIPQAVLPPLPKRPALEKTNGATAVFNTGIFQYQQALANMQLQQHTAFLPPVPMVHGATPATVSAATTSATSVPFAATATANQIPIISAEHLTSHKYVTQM

SMILES | activity change, negative = inhibition | Potency
Cc1cc2ccccc2n1CCNC(=O)C(C)Oc1ccccc1 (centres undefined) | inactive: -0.935% | –
Cc1ccnc(NS(=O)(=O)c2ccc(NC(=O)c3ccc(N4C(=O)CCC4=O)cc3)cc2)n1 | – | inconclusive: 8.91 µM [quencher, side channel, single point]
O=C(CCS(=O)(=O)c1cccc2nonc12)Nc1cccc2c1CCCC2 | – | inconclusive: 3.16 µM [quencher, side channel, full curve, poor fit]
CCN(C(=O)CSc1ncn[nH]1)C1CCCCC1 | – | inconclusive: 7.08 µM [fluorescent, side channel, single point]
COc1ccc(/C=C/C(=O)OCC(=O)NCc2ccco2)cc1OC | – | inconclusive: 39.8 µM [quencher, single point]
COc1ccccc1N1CCN(c2cc(N3CCCC3)nc(C)n2)CC1 | – | inconclusive: 39.8 µM [inhibitor, single point]
CC(C)CCNC(=O)NC(=O)COC(=O)/C=C/c1cc(Br)ccc1F | inactive: -9.3% | –
O=C(NCCCN1CCOCC1)c1nn2c(C(F)(F)F)cc(-c3ccco3)nc2c1Cl | – | inconclusive: 8.91 µM [quencher, side channel, partial curve]
COCCCNc1nc2c(c(=O)n(C)c(=O)n2C)n1Cc1cccc(OC)c1 | – | inconclusive: 39.8 µM [quencher, side channel, single point]
Cc1ccc(S(=O)(=O)c2cc3c(=O)n4ccccc4nc3n(C)c2=N)cc1 | – | inconclusive: 3.55 µM [quencher, side channel, partial curve]
Cc1ccc(N2C(=O)C3N=NN(CC(=O)N4N=C(c5cccc6ccccc56)CC4c4ccccc4)C3C2=O)cc1 (centres undefined) | – | inconclusive: 39.8 µM [quencher, side channel, single point]
Cc1cc(C)c(-c2csc(NC(=O)/C=C/c3cccs3)n2)c(C)c1 | inactive: 2.68% | –
O=C(Nc1ccc(NC(=O)c2ccc3c(c2)OCCO3)cc1)c1ccccc1 | inactive: 2.05% | –
C/C=C/Cn1c(SC)nc2c1c(=O)[nH]c(=O)n2C | inactive: -7.12% | –
O=Cc1cc2cc3c(cc2nc1Cl)OCCO3 | – | inconclusive: 10 µM [quencher, side channel, partial curve]
O=C(CN1CCCCC1)N1c2ccccc2Sc2ccc(C(F)(F)F)cc21 | – | inconclusive: 8.91 µM [quencher, side channel, single point]
Oc1ccc2ccccc2c1N=Nc1nccs1 | – | inconclusive: 14.1 µM [quencher, side channel, partial curve]
Cc1ccc2ncnc(Nc3cccc([N+](=O)[O-])c3)c2c1 | – | inconclusive: 14.1 µM [quencher, side channel, partial curve]
Cc1nc(N)nc(N/N=C/c2c(F)cccc2Cl)n1 | inactive: 8.1% | –
Cc1ccc2[nH]c3c(c2c1)CCCC3=O | – | inconclusive: 31.6 µM [quencher, side channel, single point]

SMILES | activity change, negative = inhibition | Potency
COc1ccc(C(=O)NCCc2c[nH]c3ccccc23)cc1[N+](=O)[O-] | – | inconclusive: 25.1 µM [quencher, side channel, single point]
CC(=O)Nc1c(C(=O)c2ccccc2)oc2ccccc12 | – | inconclusive: 15.8 µM [quencher, side channel, partial curve]
O=C(CS(=O)(=O)c1ccccc1)Nc1ncc([N+](=O)[O-])s1 | – | inconclusive: 25.1 µM [quencher, partial curve]
COc1ccc(Cn2nnnc2C(c2cc3ccc(OC)cc3[nH]c2=O)N2CCCCCC2)cc1 (centres undefined) | – | inconclusive: 25.1 µM [quencher, side channel, partial curve]
Cc1ccn2cc(-c3cccc(NC(=O)C(C)C)c3)nc2c1 | inactive: 1.59% | –
NC1=NC(=O)/C(=C\C=C\c2ccccc2)S1 | – | inconclusive: 8.91 µM [quencher, side channel, partial curve, poor fit]
O=C(c1cccc(F)c1)N1CCN(Cc2cccc(Br)c2)CC1 | – | inconclusive: 79.4 µM [inhibitor, single point]
Cc1ccc(C(=O)NCCNc2ccc(Cl)cc2[N+](=O)[O-])o1 | – | inconclusive: 12.6 µM [quencher, side channel, partial curve]
CC(C)Oc1ccc(-c2cc(=O)[nH]c(=O)[nH]2)cc1 | – | inconclusive: 7.94 µM [quencher, side channel, full curve, poor fit]
CCCCNC(=O)CSc1nc(N)c(C(=O)Nc2ccc(OC)cc2)s1 | – | inconclusive: 35.5 µM [quencher, side channel, single point]
COC(=O)C(NC(=O)COc1ccccc1)(Nc1nc2c(s1)CCCC2)C(F)(F)F (centres undefined) | – | inconclusive: 8.91 µM [quencher, side channel, single point]
Oc1ccc(-n2cccc2/C=N/n2cnnc2)cc1 | inactive: 2.66% | –
NS(=O)(=O)c1ccc(CCNS(=O)(=O)c2cccc3nsnc23)cc1 | – | inconclusive: 12.6 µM [quencher, side channel, partial curve]
CCOc1ccc(N=Nc2c(N)[nH][nH]c2=O)cc1 | – | inconclusive: 14.1 µM [quencher, side channel, partial curve]
COc1cc2c(c(OC)c1OC)-c1ccc(OC)c(=O)cc1[C@@H](N(C)CC#CCO)CC2 | – | inconclusive: 28.2 µM [quencher, side channel, partial curve]
O=C(Nc1c(-c2ccccc2)nc2sccn12)c1ccccc1 | inactive: 2.45% | –
COc1cc2c(cc1OC)CN(C(=O)c1ccc([N+](=O)[O-])o1)CC2 | – | inconclusive: 11.2 µM [quencher, side channel, partial curve]
COCc1nc2oc3ccccc3c(=O)c2cc1C(=O)OC | – | inconclusive: 7.94 µM [quencher, side channel, full curve, poor fit]
Cc1ccc(N2NC(=O)/C(=C\c3cc4c(cc3[N+](=O)[O-])OCO4)C2=O)cc1C | – | inconclusive: 12.6 µM [quencher, side channel, partial curve]
